Where a SMILES comes first, the peptide text is derived from it.
What follows are molecules tested on cellular ATP levels. Settings: 18.76 μM; composite Z-score vs DMSO.

| Molecule | ATP |
| --- | --- |
| Nc1ccc(/N=N/c2ccccc2)c(N)n1 [phenazopyridine] | −0.676 |

Same assay, conditions: 20 μM; composite Z-score vs DMSO

| Molecule | ATP |
| --- | --- |
| COC(=O)/C(=C1/OC(=O)C(c2ccccc2)=C1O)c1ccccc1 [vulpinic acid] | 0.685 |
| C[N+](C)(C)CCOC(N)=O [carbachol] | −0.772 |
| NC1(C(=O)O)CCCC1 [cycloleucine] | 0.045 |
| N#CC(=Cc1cccc(O)c1)C(=O)O [alpha-cyano-3-hydroxycinnamic acid] | −0.225 |
| Nc1ccc(C(=O)NCC(=O)O)cc1 [aminohippuric acid] | 0.226 |
| CC(=O)OCC[N+](C)(C)C [acetylcholine] | −0.013 |
| Nc1ccc(/N=N/c2ccccc2)c(N)n1 [phenazopyridine] | 0.077 |

Same assay, conditions: 20.6 μM; composite Z-score vs DMSO

| Molecule | ATP |
| --- | --- |
| Nc1ccc(C(=O)NCC(=O)O)cc1 [aminohippuric acid] | 0.957 |

Same assay, conditions: 27.18 μM; composite Z-score vs DMSO

| Molecule | ATP |
| --- | --- |
| C[N+](C)(C)CCOC(N)=O [carbachol] | −1.509 |

Same assay, conditions: Conc 16.24 μM; normalized score vs mock-treated (DMSO) wells

| Molecule | ATP (composite Z-score) |
| --- | --- |
| CC1=CC(=O)C2=C(C)CC[C@@H]3[C@H](OC(=O)[C@H]3C)[C@@H]12 [leucomisine] | −0.558 |

Same assay, conditions: Conc 20 μM; normalized score vs mock-treated (DMSO) wells

| Molecule | ATP (composite Z-score) |
| --- | --- |
| C=CC1=C(C)/C(=C/c2[nH]c(Cc3[nH]c(/C=C4\NC(=O)C(C)=C4C=C)c(C)c3CCC(=O)O)c(CCC(=O)O)c2C)NC1=O [bilirubin] | 0.936 |
| CC(C)(C#N)O[C@@H]1O[C@H](CO)[C@@H](O)[C@H](O)[C@H]1O [linamarin] | 0.025 |
| CC(C)c1ccc2c(c1O)CC[C@H]1C3=C(CC[C@]21C)C(=O)OC3 [triptophenolide] | −2.142 |
| COc1cc(OC)c2c(c1)OC(c1ccccc1)CC2=O (stereo not drawn) [alpinetin methyl ether] | 0.801 |
| C[C@@H]1O[C@@H](O[C@H]2[C@H](O[C@H]3CC[C@@]4(C)[C@@H](CC[C@]5(C)[C@@H]4CC=C4[C@@H]6CC(C)(C)CC[C@]6(C(=O)O[C@@H]6O[C@H](CO[C@@H]7O[C@H](CO)[C@@H](O[C@@H]8O[C@@H](C)[C@H](O)[C@@H](O)[C@H]8O)[C@H](O)[C@H]7O)[C@@H](O)[C@H](O)[C@H]6O)CC[C@]45C)[C@]3(C)CO)OC[C@H](O)[C@@H]2O)[C@H](O)[C@H](O)[C@H]1O [hederacoside C] | 0.362 |
| isoduartin methyl ether [reference compound] | 0.032 |
| N=c1ccn2c(n1)O[C@H]1[C@H](O)[C@@H](CO)O[C@H]12 [ancitabine] | −0.629 |
| COc1ccccc1-c1cc(=O)c2cccc(OC)c2o1 [8,2′-dimethoxyflavone] | 0.456 |
| COc1ccc([C@H]2COc3cc(O)ccc3C2)c(OC)c1O [mucronulatol] | −0.648 |
| 3beta-hydroxydeoxydesacetoxy-7-oxogedunin | 0.198 |
| CC(=O)O[C@@H]1c2c(ccc3ccc(=O)oc23)OC(C)(C)[C@@H]1OC(=O)CC(C)C [dihydrosamidin, reference compound] | 0.085 |
| Oc1ccc2c(c1)OC[C@H]1c3cc4c(cc3O[C@@H]21)OCO4 [maackiain] | 1.146 |
| OC[C@H]1O[C@@H](Oc2cc(O)cc(/C=C/c3ccc(O)cc3)c2)[C@H](O)[C@@H](O)[C@@H]1O [piceid] | 1.229 |
| N#Cc1c(Cl)c(Cl)c(Cl)c(C#N)c1Cl [tetrachloroisophthalonitrile] | −8.366 |
| CCOc1cc(CC(=O)c2ccc(O)c(O)c2O)ccc1O | 0.234 |

Same assay, conditions: Table 4; C2C12 myotubes, 48 h, composite Z-score

| Molecule | ATP |
| --- | --- |
| isoduartin methyl ether [reference compound] | 0.032 |

Same assay, conditions: composite Z-score vs DMSO wells; Conc 20 μM

| Molecule | ATP |
| --- | --- |
| CCn1cc(C(=O)O)c(=O)c2cc3c(cc21)OCO3 [oxolinic acid] | 0.276 |
| NS(=O)(=O)c1cc2c(cc1Cl)N=CNS2(=O)=O [chlorothiazide] | 0.445 |
| Oc1c(Cl)cc(Cl)cc1Sc1cc(Cl)cc(Cl)c1O [bithionol] | −4.693 |
| NCCCC(=O)O [gamma-aminobutyric acid] | −0.314 |
| CCCCNc1ccc(C(=O)OCCN(C)C)cc1 [tetracaine] | −0.220 |
| CCCCOc1ccc(C(=O)CCN2CCCCC2)cc1 [dyclonine] | 0.157 |

Same assay, conditions: composite Z-score vs DMSO; Conc 14.22 μM

| Molecule | ATP |
| --- | --- |
| C[C@@H]1C[C@@H]([C@H](O)CC2CC(=O)NC(=O)C2)C(=O)[C@@H](C)C1 [Cycloheximide, reference compound] | −1.021 |

Same assay, conditions: composite Z-score vs DMSO; Conc 20 μM

| Molecule | ATP |
| --- | --- |
| CC(=O)c1ccc(O)c(CC=C(C)C)c1 [3-prenyl-4-hydroxyacetophenone] | 1.387 |
| C[C@]12CCC(=O)C(O)=C1CC[C@@H]1[C@@H]2CC[C@]2(C)C(=O)CC[C@@H]12 [formestane] | −0.830 |
| C=C1C(=O)O[C@@H]2C[C@@]3(C)CCC[C@H](C)C3=C[C@H]12 [helenine] | −8.064 |
| NCC[C@H](O)C(=O)N[C@@H]1C[C@H](N)[C@@H](O[C@H]2O[C@H](CN)[C@@H](O)[C@H](O)[C@H]2O)[C@H](O)[C@H]1O[C@H]1O[C@H](CO)[C@@H](O)[C@H](N)[C@H]1O [amikacin] | −0.527 |
| O=C(C=C(O)c1ccccc1)c1ccccc1O [2′,beta-dihydroxychalcone] | −0.920 |
| O=c1cc(-c2ccc(O)cc2)oc2cc(O[C@@H]3O[C@H](CO)[C@@H](O)[C@H](O)[C@H]3O)cc(O)c12 [cosmosiin] | −0.890 |
| NC(=O)N/N=C/c1ccc([N+](=O)[O-])o1 [nitrofurazone] | 1.199 |
| COc1ccc(C[C@H](N)C(=O)N[C@H]2[C@@H](O)[C@H](n3cnc4c(N(C)C)ncnc43)O[C@@H]2CO)cc1 [Puromycin, reference compound] | −7.962 |
| COc1ccc2oc3ccccc3c(=O)c2c1 [2-methoxyxanthone] | −0.087 |
| C[C@]12CCC3C(CC[C@H]4C[C@H](O)CC[C@]34C)C1CC[C@@H]2O (stereo partly drawn) [epiandrostanediol] | 1.132 |
| C[C@@H]1C[C@@H]([C@H](O)CC2CC(=O)NC(=O)C2)C(=O)[C@@H](C)C1 [Cycloheximide, reference compound] | −0.704 |
| Cc1onc(-c2ccccc2)c1C(=O)N[C@@H]1C(=O)N2[C@@H]1SC(C)(C)[C@@H]2C(=O)[O-].[Na+] [oxacillin sodium] | −0.038 |
| C[C@H]1CC[C@]2(NC1)O[C@H]1C[C@H]3[C@@H]4CC[C@H]5C[C@@H](O)CC[C@]5(C)[C@H]4CC[C@]3(C)[C@H]1[C@@H]2C [tomatidine] | 0.445 |
| C[C@]12CC[C@@H]3c4ccc(O)cc4CC[C@H]3[C@@H]1CC[C@@H]2O [estradiol] | 0.137 |
| COC1=C[C@@H]2[C@@H]3Cc4ccc(OC)c(O)c4[C@]2(CCN3C)CC1=O [sinomenine] | 0.495 |
| CN[C@@H](C)[C@H](O)c1ccccc1 [ephedrine] | −1.049 |
| c1ccc2c(c1)CN1CCCC1=N2 [desoxypeganine] | 0.956 |
| COc1cc(OC)c2c(=O)c(-c3ccccc3)coc2c1 [5,7-dimethoxyisoflavone] | −0.194 |
| CC(C)C[C@H](NC(=O)CN)C(=O)N[C@@H](Cc1ccccc1)C(=O)O [glycylleucylphenylalanine] (H-Gly-Leu-Phe-OH) | 0.418 |
| Nc1nc2c(ncn2[C@H]2C[C@H](O)[C@@H](CO)O2)c(=O)[nH]1 [deoxyguanosine] | 0.734 |

Same assay, conditions: composite Z-score vs mock-treated (DMSO) wells; Conc 20 μM

| Molecule | ATP |
| --- | --- |
| COc1cc2c(cc1OC)-c1c(oc3c4c(ccc3c1=O)OC(C(C)C)C4)CO2 (stereo not drawn) [dehydrodihydrorotenone, reference compound] | 0.084 |
| C[C@]12CCC(=O)C=C1CCc1ccc(O)cc12 | 0.589 |
| CC(C)=CCCC1(C)C=Cc2c(O)c3c(c(CC=C(C)C)c2O1)OC12C(CC4CC1C(C)(C)OC2(C/C=C(/C)C(=O)O)C4O)C3=O (stereo not drawn) [tetrahydrogambogic acid] | −0.668 |
| COc1c2c(cc3c1OCO3)CC[N+](C)=C2 [cotarnine] | 1.285 |
| CC1(C)C(=O)C=C[C@@]2(C)C1=C(O)C(=O)[C@]1(C)[C@@H]2CC[C@@]2(C)[C@H](c3ccoc3)C[C@H]3O[C@]321 [cedrelone] | −8.647 |
| CC(=O)O[C@@H]1CC2C(C)(C)C=CC(=O)[C@]2(C)C2CC[C@@]3(C)[C@H](c4ccoc4)OC(=O)C4OC43[C@@]21C (stereo partly drawn) [isogedunin] | −0.722 |
| C=CC(C1=CC(=O)C(OC)=CC1=O)c1ccc(OC)cc1 (stereo not drawn) [4,4′-dimethoxydalbergione] | −0.089 |
| COc1cc(-c2coc3cc(OCc4ccccc4)c(OC)c(O)c3c2=O)cc(O)c1OC [irigenin, 7-benzyl ether] | −0.373 |
| 3-deoxo-3beta-hydroxymexicanolide 16-enol ether | −0.075 |
| 3alpha-hydroxy-3-deoxyangolensic acid methyl ester | 0.398 |
| C=C1[C@@H]([C@@]2(C)[C@@H](OC(C)=O)CC(=O)O[C@](C)(COC(C)=O)[C@@H]2C(=O)OC)[C@@H](OC=O)[C@H](OC(=O)[C@H](O)[C@H](C)CC)[C@@]2(C)[C@H](c3ccoc3)CC(=O)[C@]12O [Prieurianin, reference compound] | 2.125 |
| CC(C)=CCc1c(O)cc2oc(C)cc(=O)c2c1O [peucenin] | 0.465 |
| CC(=O)O[C@@H]1C[C@H]2C(C)(C)C(=O)CC[C@]2(C)[C@H]2CC[C@@]3(C)[C@H](c4ccoc4)OC(=O)[C@H]4O[C@]43[C@@]21C [dihydrogedunin] | 0.315 |

Same assay, conditions: normalized composite Z-score vs mock-treated (DMSO) wells; Conc 20 μM

| Molecule | ATP |
| --- | --- |
| COc1c2c(cc3occ(-c4ccc5c(c4)OCO5)c(=O)c13)OC(C)(C)C=C2 [methyl robustone, reference compound] | −0.638 |
| COc1cc(C)c(C(=O)O)c(O)c1 [everninic acid] | 0.947 |
| COc1ccc(-c2cc(=O)c3ccc(OC)cc3o2)cc1 [4,7-dimethoxyflavone] | −0.035 |
| COc1ccc(-c2cc(=O)c3c(O)cc(O)c(-c4cc(-c5cc(=O)c6c(O)cc(O)cc6o5)ccc4OC)c3o2)cc1 [isoginkgetin] | −0.550 |
| CC1(C)C2CC(=O)[C@]3(C)C(CC[C@@]4(C)[C@H](c5ccoc5)OC(=O)[C@H]5O[C@]543)[C@@]2(C)C(=O)C[C@H]1O (stereo partly drawn) | −0.155 |
| CC1CC(O)C2OC1CC1C(CC1(C)C)C2C (stereo not drawn) [3,7-epoxycaryophyllan-6-ol] | −0.499 |
| C[C@]12CC[C@H](O)C[C@H]1CC[C@@H]1[C@@H]2[C@H](O)C[C@]2(C)[C@@H](C3=CC(=O)OC3)CC[C@]12O [sarmentogenin] | 1.794 |
| CC1(O)/C=C\C=C(\CO)C2CC(C)(C)C2(O)CC1 (stereo not drawn) [punctaporin B] | −0.771 |

Reference: patent publication US20090143279A1 (priority 2007, published 2009)
